{"source": "PubChem BioAssay AID1645887", "about": "(National Center for Advancing Translational Sciences (NCATS), 2021)", "note": "Several values for one entry are separate records, joined by “and”; a condition that tells them apart may be missing. Equal values may be shown once. The campaign covered roughly 16,000 compounds. About 40 (0.2%) were called active. Not shown: some 1% with an inconclusive outcome. Calls come from the whole dose curve; as a rule, active = well fitted activation curve with a large enough effect; inconclusive = small, poorly fitted or top-dose-only effect, or another doubt; inactive = no such curve, though single readings can be large or run the other way. The list shows a part of the results. % is set by controls: 0 for no effect and ±100 for the full control effect.", "data": [{"molecular_target": "Rap guanine nucleotide exchange factor 4 (Homo sapiens) (UniProt Q8WZA2)", "sequence (Q8WZA2 whole entry, looked up)": "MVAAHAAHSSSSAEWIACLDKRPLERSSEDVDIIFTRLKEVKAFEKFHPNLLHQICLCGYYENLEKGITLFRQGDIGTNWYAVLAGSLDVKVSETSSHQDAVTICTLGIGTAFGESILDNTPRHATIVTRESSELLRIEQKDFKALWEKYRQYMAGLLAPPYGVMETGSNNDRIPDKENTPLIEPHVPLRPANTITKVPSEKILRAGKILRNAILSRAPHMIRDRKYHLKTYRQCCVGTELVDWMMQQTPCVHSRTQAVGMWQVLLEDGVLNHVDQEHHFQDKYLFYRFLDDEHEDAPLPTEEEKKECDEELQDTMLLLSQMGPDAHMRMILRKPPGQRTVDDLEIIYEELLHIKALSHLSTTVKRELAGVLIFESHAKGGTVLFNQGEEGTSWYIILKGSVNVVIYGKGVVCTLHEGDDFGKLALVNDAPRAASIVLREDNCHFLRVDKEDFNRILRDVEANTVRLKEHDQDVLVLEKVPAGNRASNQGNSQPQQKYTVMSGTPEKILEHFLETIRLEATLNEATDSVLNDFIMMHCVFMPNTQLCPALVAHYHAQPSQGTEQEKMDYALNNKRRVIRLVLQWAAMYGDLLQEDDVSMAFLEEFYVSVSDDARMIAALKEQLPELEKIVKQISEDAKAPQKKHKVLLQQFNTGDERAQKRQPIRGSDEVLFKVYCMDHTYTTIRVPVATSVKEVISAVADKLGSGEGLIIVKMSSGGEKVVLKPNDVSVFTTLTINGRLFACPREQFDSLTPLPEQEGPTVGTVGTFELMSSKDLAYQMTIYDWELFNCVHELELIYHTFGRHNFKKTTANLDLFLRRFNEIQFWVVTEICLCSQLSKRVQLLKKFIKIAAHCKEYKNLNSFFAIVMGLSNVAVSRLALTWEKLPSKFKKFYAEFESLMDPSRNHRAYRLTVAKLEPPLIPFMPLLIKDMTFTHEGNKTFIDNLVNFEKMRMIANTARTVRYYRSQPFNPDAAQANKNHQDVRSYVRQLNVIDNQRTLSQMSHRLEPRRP", "assay": "Validation qHTS for agonist of cAMP-regulated guanine nucleotide exchange factor 4 (EPAC2);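 note: exchange makes BODIPY-GDP fluorescence drop when released from Rap1B; series mostly up to about 150 µM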", "conditions": "EPAC2 Rap1B BODIPY-GDP exchange, fluorescence; activation: hits give high values", "procedure,_shortened": "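Signal normalized against 6.5 mM cAMP as agonist control. Mix of EPAC2 (100 nM), RAP1B-BODIPY-GDP (250 nM) and GDP (50 uM) was read kinetically at 480/540 nm, every 5 min over 30 min, after 5 min room-temperature incubation with compound.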", "values": [{"smiles": "C=C1C([C@@]2(C)C(OC(C)=O)CC(=O)O[C@@](C)(COC(C)=O)C2CC(=O)OC)C(OC=O)C(OC(=O)C(OC(C)=O)C(C)CC)[C@]2(C)C(c3ccoc3)CC(=O)C12O", "note": "(stereo partly specified)", "activation": "inactive: -32.9%"}, {"smiles": "ClCCN(CCCl)c1ccc(C=Nc2ccc(/C=C/c3ccnc4ccccc34)cc2)cc1", "activation": "inactive: 8.72%"}, {"smiles": "CS(=O)(=O)N1CCC2(CCCN(Cc3ccncc3)C2)CC1", "activation": "inactive: -4.05%"}, {"smiles": "O=C1NCN(c2ccccc2)C12CCN(C[C@H]1COc3ccccc3O1)CC2", "activation": "inactive: -0.816%"}, {"smiles": "CC(O)CN1CCN(CC(=O)[O-])CCN(CC(=O)[O-])CCN(CC(=O)[O-])CC1.[Gd+3]", "note": "(stereo unspecified)", "activation": "inactive: -3.81% and inactive: -4.93%"}, {"smiles": "NC(=O)[C@H](Cc1ccccc1)NC(=O)[C@H](Cc1c[nH]c2ccccc12)NC(=O)[C@@H]1CCCN1C(=O)[C@@H](N)Cc1ccc(O)cc1", "activation": "inactive: 6.05%"}, {"smiles": "O=C(c1ccco1)N1CCC2(CC1)CN(Cc1ccncc1)C2", "activation": "inactive: 2.41%"}, {"smiles": "CCN(Cc1ccc(Cl)nc1)/C(=C/[N+](=O)[O-])NC", "activation": "inactive: -28.3%"}, {"smiles": "C1CN(P2(N3CC3)=NP(N3CC3)(N3CC3)=NP(N3CC3)(N3CC3)=N2)CCO1", "note": "(stereo unspecified)", "activation": "inactive: -12.1%"}, {"smiles": "CNC(=O)Oc1cccc2c1OC(C)(C)C2", "activation": "inactive: -9.27%"}, {"smiles": "C/C(O)=C(\\C#N)C(=O)Nc1cc(Br)ccc1Br", "activation": "inactive: -42.9%"}, {"smiles": "CN1CC[C@]23c4c5ccc(O)c4O[C@H]2[C@@H](O)CC[C@H]3[C@H]1C5", "activation": "inactive: 25.7%"}, {"smiles": "COc1cc([C@@H]2c3cc4c(cc3[C@@H](O)[C@H]3COC(=O)[C@H]23)OCO4)cc(OC)c1O", "activation": "inactive: 4.73%"}, {"smiles": "c1ccc2c(c1)Sc1ccccc1N2C[C@@H]1CN2CCC1CC2", "activation": "inactive: 0.111%"}, {"smiles": "CN1CC[C@@]2(CCCN(C(=O)Oc3ccccc3)C2)C1", "activation": "inactive: -40.5%"}, {"smiles": "OC[C@@H](O)[C@H]1O[C@@H]2O[C@@H](C(Cl)(Cl)Cl)O[C@@H]2[C@H]1O", "activation": "inactive: 0.942%"}, {"smiles": "CCCC(C)(COC(N)=O)COC(=O)NC(C)C", "note": "(stereo unspecified)", "activation": "inactive: -11.8% and inactive: 8.2% and inactive: -41.4%"}, {"smiles": "COc1ccc(CC2NCC(O)C2OC(C)=O)cc1", "note": "(stereo unspecified)", "activation": "inactive: -0.735%"}, {"smiles": "CCCC1CCCCN1", "note": "(stereo unspecified)", "activation": "inactive: -30.4%"}, {"smiles": "CN1C(=O)CC(=O)N(c2ccccc2)c2cc(Cl)ccc21", "activation": "inactive: 11.7%"}, {"smiles": "CCC1(C)CC(=O)NC(=O)C1", "activation": "inactive: -41.9%"}, {"smiles": "Cc1cccc(C(C)c2cnc[nH]2)c1C", "note": "(stereo unspecified)", "activation": "inactive: -11.7%"}, {"smiles": "COc1cc(OC)c(OC)cc1C=O", "activation": "inactive: 14.5% and inactive: -5.57%"}, {"smiles": "O=C(O)[C@@H]1C[C@H]2C[C@@H](CP(=O)(O)O)CC[C@H]2CN1", "activation": "inactive: 0.869%"}, {"smiles": "COc1cc2c(cc1O)CC1c3c(cc(O)c(OC)c3-2)CCN1C", "note": "(stereo unspecified)", "activation": "inactive: -18.6% and inactive: -1.34%"}, {"smiles": "C#CC(C)(O)CC", "note": "(stereo unspecified)", "activation": "inactive: -4.39%"}, {"smiles": "C[C@H](NC(=O)[C@@H](N)Cc1ccc(O)cc1)C(=O)NCC(=O)N(C)[C@@H](Cc1ccccc1)C(=O)N[C@H](CO)CCS(C)=O", "note": "(stereo partly specified)", "activation": "inactive: -0.423%"}, {"smiles": "Clc1ccc(C(c2ccc(Cl)cc2)C(Cl)(Cl)Cl)cc1", "activation": "inactive: -5.78% and inactive: -16.6%"}, {"smiles": "COC[C@]12CN(C=O)C3C4C(OC)C1[C@@]3(C1CC3(O)C(OC)C(O)C4(OC(C)=O)C1C3OC(=O)c1ccccc1)[C@@H](OC)CC2O", "note": "(stereo partly specified)", "activation": "inactive: 4.01%"}, {"smiles": "CCC1CN2CCC1CC2C(O)c1ccnc2ccc(OC)cc12", "note": "(stereo unspecified)", "activation": "inactive: -15.6%"}, {"smiles": "COc1cc(N)c(Cl)cc1C(=O)NC1CN2CCC1CC2", "note": "(stereo unspecified)", "activation": "inactive: -11.5%"}, {"smiles": "C[C@H]1C(=O)O[C@H]2CCN3CC=C(COC(=O)[C@](C)(O)[C@@]1(C)O)C23", "note": "(stereo partly specified)", "activation": "inactive: 6.08%"}, {"smiles": "CC(=O)OC1C2C(OC(=O)Cc3ccccc3)C(C)CC2(OC(C)=O)C(=O)/C(C)=C/C2C(CC[C@@]13CO3)C2(C)C", "note": "(stereo partly specified)", "activation": "inactive: -8.85%"}, {"smiles": "OC(c1ccccc1)(c1ccccc1)C1CCNCC1", "activation": "inactive: 6.77%"}, {"smiles": "C[C@]12CCC(=O)C=C1CC[C@@H]1[C@@H]2CC[C@]2(C)C(=O)CC[C@@H]12", "activation": "inactive: 10.5% and inactive: -6.21%"}, {"smiles": "CC1=CCCC2C1(C)CCC(C)C2(C)CC/C(C)=C/C[n+]1cn(C)c2c(N)ncnc21", "note": "(stereo unspecified)", "activation": "inactive: -8.02%"}, {"smiles": "COCC#CCN1CCCCC1c1cccnc1", "note": "(stereo unspecified)", "activation": "inactive: -2.82%"}, {"smiles": "NC(=O)OCCCc1ccccc1", "activation": "inactive: 7.05%"}, {"smiles": "Nc1c(Cl)c(Cl)c(Cl)c(Cl)c1Cl", "activation": "inactive: 7.68%"}, {"smiles": "COc1ccc(NC(=O)N2CCC3(CC2)CCN(C(=O)Oc2ccccc2)CC3)cc1", "activation": "inactive: -24.5%"}, {"smiles": "NC1CCc2cc(O)c(O)cc2C1", "note": "(stereo unspecified)", "activation": "inactive: -6.59% and inactive: -45.4% and inactive: 0.892%"}, {"smiles": "CC1CC(O)[C@]2(O)[C@]13CC(=O)OC[C@@]2(C)[C@@](C)(O)C(=O)C3", "note": "(stereo partly specified)", "activation": "inactive: -1.91%"}, {"smiles": "C[C@]12CCC(=O)C(O)=C1CC[C@@H]1[C@H]3CCC(=O)[C@@]3(C)CC[C@@H]12", "activation": "inactive: -2.61%"}, {"smiles": "CN1CC(CO)=C[C@H]2c3cccc4[nH]cc(c34)C[C@H]21", "activation": "inactive: 3.48%"}, {"smiles": "CN[C@@H]1C[C@H](c2ccc(Cl)c(Cl)c2)c2ccccc21", "activation": "inactive: -29.8%"}, {"smiles": "C[C@H]1CC[C@]2(NC1)O[C@H]1C[C@H]3[C@@H]4CC[C@H]5C[C@@H](O[C@@H]6O[C@H](CO)[C@H](O[C@@H]7O[C@H](CO)[C@@H](O)[C@H](O[C@@H]8OC[C@@H](O)[C@H](O)[C@H]8O)[C@H]7O[C@@H]7O[C@H](CO)[C@@H](O)[C@H](O)[C@H]7O)[C@H](O)[C@H]6O)CC[C@]5(C)[C@H]4CC[C@]3(C)[C@H]1[C@@H]2C", "activation": "inactive: -8.01%"}, {"smiles": "C[N+]1([O-])CCC[C@@H]1c1cccnc1", "note": "(stereo partly specified)", "activation": "inactive: -3.18%"}, {"smiles": "O=C1CCO1", "activation": "inactive: -0.0761% and inactive: -2.92%"}, {"smiles": "O=C(CCCN1CCC(n2c(=O)[nH]c3ccccc32)CC1)c1ccc(F)cc1", "activation": "inactive: -18.3%"}, {"smiles": "O=C1C2CCN(CC2)C1(CO)CO", "activation": "inactive: -21.8%"}, {"smiles": "CN1CC(CNC(=O)OCc2ccccc2)CC2c3cccc4c3c(cn4C)CC21", "note": "(stereo unspecified)", "activation": "inactive: -11.6%"}]}]}
